Test results taken from PubChem BioAssay AID1345083 (National Center for Advancing Translational Sciences (NCATS), 2018).
The whole screen tested about 94,000 compounds, of which about 6,200 (6.6%) were called active. Inconclusive means that the source gave no clear call. Such entries were picked first, then a sample of the others. The call rests on the fitted dose curve; in most records, active means well fitted inhibition curve with a large enough effect; inconclusive means small, poorly fitted or top-dose-only effect; inactive means flat fitted curve, though single readings scatter. Potencies of inconclusive entries are doubtful fits and often do not repeat.

Assay: Cytotoxic Profiling in HEK 293 Cell Line of Diverse Libraries Using Quantitative High-Throughput Screening; further: nearly all actives have a fitted effect of over 60% in size
Details: HEK 293 viability, ATP luminescence (CellTiter-Glo), 48-72 h; series mostly up to 115 µM
Procedure, shortened: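 Viability of HEK 293 cells, plated at 250 cells/well, was judged by cellular ATP after compound treatment for 48 or 72 hr. Luminescence was imaged 10 min after CellTiter-Glo addition at room temperature.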
Potency means the concentration at half of the fitted maximal effect; tags describe the fitted curve by direction and shape.

Compound | Potency
Cn1ccc2c(C(=O)NCc3cccnc3)nc(-c3ccccc3C(F)(F)F)cc21 | active: 70.8 µM
COC(=O)[C@@H]1Cc2ncn(Cc3ccc(Cl)cc3)c2CN1Cc1cccnc1 | inconclusive: 100 µM [inhibitor, partial curve]
O=C(NCC(F)(F)F)c1cc(C2CC2)nc2onc(C3CCCN3)c12 (stereo unspecified) | inactive
C=CCC(O)(CC=C)C(C)NC(=O)c1ccc(OC2CCN(Cc3ccccn3)CC2)cc1 (stereo unspecified) | inconclusive: 17.8 µM [inhibitor, full curve, poor fit]
Cc1noc(-c2ccco2)c1C(=O)NCCC(c1ccccc1)c1ccccc1 | active: 39.8 µM
COc1ccc(-c2noc(Nc3ccc4c(c3)OCO4)n2)cc1 | inconclusive: 10 µM [inhibitor, full curve, poor fit]
COCCNC(=O)C1CCCN1Cc1cccc(-c2cccc(OC)c2)c1 (stereo unspecified) | inconclusive: 44.7 µM [inhibitor, partial curve, poor fit]
Cc1csc(NC(=O)C2CC(=O)N(c3n[nH]c4cccc(F)c34)C2)n1 (stereo unspecified) | inconclusive: 89.1 µM [inhibitor, single point]
Cc1noc(C)c1-c1cc2c(cc(C)n2C)c(N2CCN(c3ccccn3)CC2)n1 | active: 63.1 µM
O=S(=O)(NCCc1noc(-c2ccccc2)n1)c1cccs1 | inconclusive: 3.55 µM [inhibitor, full curve, poor fit]
CN(Cc1ccccc1C(F)(F)F)C(=O)Cc1ccc(F)cc1 | inconclusive: 100 µM [inhibitor, partial curve, poor fit]
C1=C(c2nc(-c3ccc(N4CCOCC4)cc3)cc3c2ccn3Cc2cccnc2)CCOC1 | inconclusive: 79.4 µM [inhibitor, partial curve, poor fit]
CCCn1ncc(N2CCC(C(=O)N(CCCOC)Cc3ccc4c(c3)CCCN4CC)CC2)cc1=O | active: 22.4 µM
CC1=C[C@@H](CNC(=O)C2CC2)[C@H](C(C)C)C[C@H]1CC(=O)Nc1ccccn1 | inactive
Cc1ccc(CN2CCc3nc(C(=O)NCc4cccc(F)c4)oc3CC2)o1 | inconclusive: 126 µM [inhibitor, single point]
O=C(Nc1ccc(Cl)cc1)N1CCC2(CC1)C(=O)NCN2Cc1ccc(Cl)cc1 | inconclusive: 79.4 µM [inhibitor, partial curve]
CN1CC(=O)N(c2ccc(Cl)cc2)Cc2c(NCc3ccc(F)cc3)ncnc21 | inconclusive: 56.2 µM [inhibitor, partial curve, poor fit]
COCCOc1cc(C)c2c(c1C)C[C@H](C(C)C(=O)N1CCC(O)CC1)CC2 (stereo partly specified) | inactive
COc1ccccc1-c1cccc(C(=O)N2CCC[C@H]2C(=O)NCc2ccc(F)cc2F)c1 | inconclusive: 56.2 µM [inhibitor, partial curve, poor fit]
COc1cc(Cl)ccc1C(=O)N[C@@H]1C[C@H]2C(=O)N(C)CC(=O)N2C1 | inactive
CCOc1cccc(CN2C[C@@H]3C(=O)N(CCN4CCc5ccccc5C4)C(=O)[C@@H]3C2)c1 | inconclusive: 56.2 µM [inhibitor, partial curve, poor fit]
COCCNc1ncc(-c2cccc(NC(C)=O)c2)c2c1OCC2 | inconclusive: 28.2 µM [inhibitor, full curve, poor fit]

Compound | Potency
CC1CCC2(CC1)OCC(C(=O)NCc1ccccc1)N2C(=O)c1cccc(Cl)c1 (stereo unspecified) | inconclusive: 56.2 µM [inhibitor, partial curve, poor fit]
Cc1ncsc1CCC(=O)N(C)Cc1csc(-c2ccccc2)n1 | inconclusive: 50.1 µM [inhibitor, partial curve, poor fit]
COCCNC(=O)c1ccc(CC2CCN(C(=O)CN3CCCCCC3)CC2)cc1 | inconclusive: 89.1 µM [inhibitor, single point]
COc1ccccc1-c1cc(NCCc2ccccn2)c2onc(C)c2n1 | inconclusive: 89.1 µM [inhibitor, partial curve]
O=C1CC(c2ccccc2)N(Cc2ccncc2)CCCN(CC2CCCCC2)CCN1 (stereo unspecified) | inconclusive: 63.1 µM [inhibitor, partial curve, poor fit]
O=C(NCc1ccco1)Nc1cccc(-c2ccc(N3CCCC3)nn2)c1 | inconclusive: 56.2 µM [inhibitor, single point]
Cc1ccc(N2CCN(c3nc4c(c(=O)[nH]3)CCNC4)CC2)cc1 | inconclusive: 89.1 µM [inhibitor, single point]
O=C(NCc1ccc(F)cc1)C1c2ccccc2C(=O)N(Cc2ccccc2)C12CCCC2 (stereo unspecified) | active: 39.8 µM
CN(C)C(=O)N[C@@H]1CN[C@H](CO)C1 | inactive
CCCCOc1ccc(C(=O)N2CCC(c3n[nH]c(=O)n3Cc3ccc(C)cc3)CC2)cc1 | inconclusive: 31.6 µM [inhibitor, full curve, poor fit]
Cc1noc2c(NC3CCOCC3)cc(-c3ccsc3)nc12 | inconclusive: 100 µM [inhibitor, partial curve]
COc1ncccc1-c1nccn2c(C3CN(C(=O)c4cc5ccccc5[nH]4)C3)ncc12 | inconclusive: 100 µM [inhibitor, partial curve, poor fit]
COc1ccccc1-c1cc(C(=O)NCc2cccnc2)nc2c1cnn2C | inactive
COc1ccc(-c2cccc(C(=O)N3CCN(C(=O)Cc4ccccn4)CC3)c2)nn1 | inactive
O=C1Cc2c(-c3ccccc3Oc3ccccc3)n[nH]c2CN1Cc1ccccc1 | inconclusive: 56.2 µM [inhibitor, full curve]
CCCC1(CO)CCCN(Cc2cnn(-c3cccc(F)c3)c2)C1 (stereo unspecified) | inconclusive: 50.1 µM [inhibitor, partial curve, poor fit]
CC(C)NC(=O)c1ccccc1OCC1CCCN(Cc2ccncc2F)C1 (stereo unspecified) | inconclusive: 44.7 µM [inhibitor, partial curve, poor fit]
Cn1nc(C2CC2)cc1NC(=O)C(C)(C)C | inactive
Cc1noc(C)c1[S+](=O)([O-])N1CCC2(CC1)Cc1ccccc1NC2=O | inconclusive: 89.1 µM [inhibitor, single point]
COC[C@@H]1CN(CCCc2ccccc2)C[C@H]1C(N)=O | inactive
COc1ccccc1OCCNC(=O)C1CCN(c2cc(C(F)(F)F)ncn2)CC1 | inactive
COc1ccc(CC(=O)NC2CCN(Cc3cccc(-c4ccc(F)c(F)c4)c3)CC2)cc1 | inactive

Compound | Potency
c1ccc(CC2=NOC3(CCN(CC4CCCCC4)CC3)C2)cc1 | inconclusive: 89.1 µM [inhibitor, partial curve, poor fit]
Cc1ccccc1NC(=O)c1ccc2c(c1)OCCN(CCC(F)(F)F)C2 | inconclusive: 11.2 µM [inhibitor, full curve, poor fit]
COc1ccc(-c2noc([C@@H]3Cc4nc[nH]c4CN3C(=O)Nc3ccccc3)n2)cc1 | inconclusive: 100 µM [inhibitor, partial curve]
O=C(CN1CCCc2nc(C3CC3)ncc2C1=O)NCCCN1CCc2ccccc2C1 | inactive
CNC(=O)c1cc(C)nc2onc(C3CCN(C(=O)c4ccc(Cl)cc4)C3)c12 (stereo unspecified) | inconclusive: 89.1 µM [inhibitor, single point]
CC(C)c1noc(CC2CCN(C(=O)Cc3ccc(F)cc3)CC2)n1 | inactive
CC(C)CNC(=O)C1Cn2cccc2C(=O)N1C (stereo unspecified) | inactive
COc1ccc(F)cc1Nc1cnc2ccc(N(C)C)nn12 | active: 100 µM
CC(=O)N1CCN(c2cc(-c3noc([C@@H]4CCCN4Cc4ccccc4)n3)ccn2)CC1 | active: 70.8 µM
CC(C)C(=O)N1CCN(c2nccc(Nc3ccccc3Cl)n2)CC1 | active: 39.8 µM
O=C(NCCn1ccn2nc(-c3ccc(F)cc3)cc2c1=O)c1ccc2c(c1)OCO2 | inconclusive: 100 µM [inhibitor, single point]
Fc1ccc(-c2nnc3ccc(Nc4ccc(N5CCOCC5)cc4)nn23)nc1 | inconclusive: 50.1 µM [inhibitor, full curve]
CC(C)CNC(=O)N1CC(Oc2ccccc2-c2nc(-c3ccccc3)no2)C1 | inconclusive: 39.8 µM [inhibitor, partial curve, poor fit]
COc1ccc(CN2Cc3[nH]nc(-c4ccccc4OC)c3CC2=O)cc1 | inconclusive: 112 µM [inhibitor, single point]
CC(C)c1noc(-c2cn(C3CCN(C(=O)c4ccc(C#N)cc4)CC3)nn2)n1 | inconclusive: 79.4 µM [inhibitor, single point]
COc1ccc(-c2ccnc(N[C@H]3CO[C@H]4[C@@H]3OC[C@@H]4NS(=O)(=O)c3ccc(C)cc3)n2)cc1 | inconclusive: 11.2 µM [inhibitor, partial curve, poor fit]
Cn1cc2c3c(cccc31)CN(C(=O)c1cccs1)CC2 | inconclusive: 50.1 µM [inhibitor, partial curve, poor fit]
Cc1ccccc1-c1nc(C2CC(=O)N(c3ccc(Cl)cc3)C2)no1 (stereo unspecified) | inconclusive: 89.1 µM [inhibitor, single point]
Cc1ccc(N(C)C2CN(C(=O)OC(C)(C)C)C2)cc1 | inconclusive: 100 µM [inhibitor, partial curve, poor fit]
COc1ccc(C(=O)N2CCC(Cc3nncn3C)C2)cc1 (stereo unspecified) | inactive
c1cc2c(cc1-c1cn3c(n1)CO[C@@H](CNC1CCOCC1)C3)OCCCO2 | inactive
Cc1cc(C(=O)N2CCCn3nc(CCC(=O)O)cc3C2)c2c(C)noc2n1 | inactive
